Reference: the supplement of paper PMC10441789
The other results are listed elsewhere or left out. Antibody binding of pooled human sera (four to six donors per pool; dilution not stated) to peptides of the Trypanosoma cruzi antigen TSSA on microarrays. Quantile-normalised fluorescence in arbitrary units, mean of duplicate arrays; higher = more binding. No active / inactive call. The uninfected pools are read here as the healthy donors of the same country. The strongest signals lie near the top of the scale (about 60,000).

Each sequence was assayed on pooled sera of chronic Chagas disease patients, Argentina (assay: antibody binding signal (normalised fluorescence) (arbitrary fluorescence units); higher = stronger serum antibody binding to peptide).
Procedure: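 Microarray of 15-residue peptides over residues 30-55 of Trypanosoma cruzi TSSAII, each with 1 to 10 substitutions at naturally variable positions, probed with one serum pool per country.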
Sequence STPPSGKDNKPATGG has an antibody binding signal of 40900.
Sequence SGTENKTATGGTPSP has an antibody binding signal of 29400.
For DNKPAAGETPSQSGA, the antibody binding signal was 268.
KPAAGGAPSQPGASS was tested, and the antibody binding signal was 197.
KKAATGGTPSQSGAS gave an antibody binding signal of 362.
In the case of NKAATGGTPSPPGAS, the antibody binding signal is reported as 401.
With DNKPATGEAPSPPGA the antibody binding signal was 45400.
KDKKTAAGGAPSQSG was tested, and the antibody binding signal was 183.
Work on GKDNKAATGETPSQS yielded an antibody binding signal of 8940.
In the case of TDKKAAAGGAPSQPG, the antibody binding signal is reported as 1610.
In the case of GTDKKPAAGGAPSPP, the antibody binding signal is reported as 463.
TENKTATGGAPSPPG gave an antibody binding signal of 26900.
Sequence KENKPAAGEAPSPSG has an antibody binding signal of 299.
GTDNKPAAGGAPSPP showed an antibody binding signal of 3170.
With SGKDNKTATGEAPSP the antibody binding signal was 13500.
SGKEKKPAAGGAPSP gave an antibody binding signal of 7730.
In the case of TEKKTAAGEAPSQSG, the antibody binding signal is reported as 886.
For KENKPATGGTPSQPG, the antibody binding signal was 373.
Work on PPSGKEKKTATGETP yielded an antibody binding signal of 1860.
In the case of DKKAATGGTPSQSGA, the antibody binding signal is reported as 581.
KDKKPAAGEAPSPPG gave an antibody binding signal of 212.
For GTEKKPAAGGTPSPP, the antibody binding signal was 515.
For GKDNKPATGGTPSQP, the antibody binding signal was 643.
Sequence SGKDKKAATGGAPSP has an antibody binding signal of 901.
Work on PSGTDKKPAAGGAPS yielded an antibody binding signal of 4340.
Sequence GTENKPATGGTPSPP has an antibody binding signal of 44100.
SGTEKKAATGGAPSQ was tested, and the antibody binding signal was 4190.
TDNKAAAGEAPSPSG gave an antibody binding signal of 264.
TPPSGTDNKAAAGGT was tested, and the antibody binding signal was 47300.
Work on KENKPAAGGTPSQSG yielded an antibody binding signal of 190.
KENKAATGETPSQSG showed an antibody binding signal of 3840.
In the case of PPSGKEKKAAAGGTP, the antibody binding signal is reported as 1830.
Work on SGKDKKPAAGGAPSP yielded an antibody binding signal of 784.
For TENKAAAGGTPSQPG, the antibody binding signal was 34500.
In the case of TDNKTAAGEAPSPPG, the antibody binding signal is reported as 415.
TEKKPATGGAPSQSG was tested, and the antibody binding signal was 2670.
With SSTPPSGTDNKPAAG the antibody binding signal was 53900.
Work on KKTAAGGTPSQSGAS yielded an antibody binding signal of 234.
GTDKKPATGETPSPS gave an antibody binding signal of 30800.
PPSGKDNKAATGETP showed an antibody binding signal of 3760.
